Source: ChEMBL document CHEMBL4888484, “Replenishing the malaria drug discovery pipeline: Screening and hit evaluation of the MMV Hit Generation Library 1 (HGL1) against asexual blood stage Plasmodium falciparum ,using a nano luciferase reporter read-out” (2022)
In all, about 150,000 compounds went through this assay and about 540 (0.36%) showed an effect of 50% or more. This is one part of the list.

These compounds were tested on Plasmodium falciparum (assay: Primary screen in NF54 nanoGlo assay, in single point, at 2uM, 72h; a lower Z score goes with more inhibition). Details: timepoint 72 hour.
Assay type: functional, Erythrocyte

| SMILES | % Inhibition | Z score |
| --- | --- | --- |
| Cc1ccc(OCc2c(C(=O)NC[C@H]3C[C@@H]4C=C[C@H]3C4)c(=O)cc(C)n2CCN2CCOCC2)cc1 | -9% | 1.11 |
| CC(C)CN(CC(C)C)S(=O)(=O)N1CCC(C(=O)N2CCC3(CC2)OCCO3)CC1 | -13% | 2.2 |
| CCOc1ccc(N2C(=O)NC(=O)C(CCc3ccncc3)(CCc3ccncc3)C2=O)cc1 | 0% | -0.03 |
| COCCC(=O)Nc1ccc2n(c1=O)C[C@H]1C[C@@H]2CN(Cc2ccc(F)cc2)C1 | -3% | 0.51 |
| Cc1ncc2c(n1)C[C@@H]1CC[C@H]2N1C(=O)COc1ccccc1 | -8% | 1.18 |
| C=C1C2CC3(C[C@H]4C5C6(C3CC2=O)C4[N+]([O-])(CC)C[C@]5(C)CC[C@@H]6O)[C@@H]1O (some centres undefined) | -6% | 1.11 |
| CCCCc1nc(CN2CCC[C@H](C(=O)c3cccc(Cl)c3)C2)c[nH]1 | 5% | -0.69 |
| O=C(NCc1cncc(O)c1)C1NCCC2CCCCC21 (centres undefined) | 6% | -0.88 |
| COC[C@H](C)NCCc1ccc(C)cc1 | -4% | 0.73 |
| CC1CCCCC1N1CCN(C(=O)COc2ccc(Br)cc2)CC1 (centres undefined) | 29% | -0.9 |
| Clc1cccnc1N1CCC[C@H]1c1cccnc1 | -4% | 0.63 |
| COc1cc(C(=O)Nc2ccc3[nH]c(=O)oc3c2)cc(OC)c1OC | -10% | 1.52 |
| O=C1CN=C(c2ccccc2)c2ccccc2N1Cc1ccc(C(F)(F)F)cc1 | -2% | 0.26 |
| Cc1onc(-c2cccnc2)c1C(=O)N1CCC2(CC1)OCCO2 | 11% | -1.99 |
| Cc1ccc(C(=O)Nc2nccnc2C(=O)N2CCC3(CC2)OCCO3)cc1 | -9% | 1.32 |
| CCCc1nc(C)cc(N2CCCN3CCC[C@H]3C2)n1 | 5% | -0.98 |
| Cc1ccn2c(CN3CCCC4(C3)OCCO4)cnc2c1 | -6% | 0.47 |
| O[C@H]1C[C@@H]2CN(Cc3nccs3)C[C@@H]2C[C@@H]1O | -16% | 1.46 |
| O=C(c1cnn2c1CCCC2)N1C[C@H](c2ccccc2)[C@@H]2[C@H]1C1CCN2CC1 | -1% | 0.19 |
| Cc1n[nH]c(CN2C[C@H]3CCC[C@@H](C3)C2)c1Cl | -3% | 0.44 |
| Cc1ccc(Cn2c(=O)oc3ccc(C(=O)NC4CCCCCC4)cc32)cc1 | 1% | -0.13 |
| C[C@H](NCCc1c[nH]c2ccccc12)c1nccs1 | 7% | -0.76 |
| CN(C)c1cc(NC(=O)N2CC3CCC2CN3)ncc1Br (centres undefined) | -5% | 0.66 |
| Cc1ccc([C@H]2CN(C(=O)c3cncc(C)c3)[C@@H]3C4CCN(CC4)[C@H]23)cc1 | 11% | -1.39 |
| CC(O)C(=O)NC(c1ccc(Cl)cc1)C1CC2CCC(C1)N2C (centres undefined) | 1% | -0.16 |
| Cc1cc(C(=O)O[C@@H](C)C(=O)NC(=O)NCC(F)(F)F)c(C)n1C(C)C | -10% | 1.03 |

| SMILES | % Inhibition | Z score |
| --- | --- | --- |
| CCOc1cc(Cl)ccc1C(=O)NC[C@H]1CN2CCN1CC2 | -2% | 0.3 |
| CCc1c(C(=O)NC[C@@H]2CCCN3CCCC[C@H]23)c(=O)cc(C)n1Cc1ccccc1OC | -14% | 1.98 |
| Cc1ccc(CNC(=O)Nc2ccc3oc(=O)n(C)c3c2)c(C)c1 | -8% | 1.19 |
| Cc1nsc(N2CCNCC2)c1C#N | 5% | -0.52 |
| CC(=O)c1ccc(NC(=O)N2CCN3CCC2CC3)cc1 | 0% | -0.01 |
| Cc1nc[nH]c1CN1C[C@H]2CC[C@@H](C1)N(C(=O)Cc1ccc3c(c1)OCO3)C2 | -9% | 1.69 |
| CN1Cc2ccccc2-n2ccnc2C12CCN(C(=O)c1ccncc1)CC2 | -11% | 1.39 |
| COc1ccc2c(c1)[C@@]1(CCN(C(=O)Nc3ccccc3F)C1)C(=O)N2 | -2% | 0.34 |
| CCC1(CC)C(=O)NC(=NNc2ccccc2)NC1=O | -1% | 0.21 |
| CN1[C@@H]2CC[C@H]1CN(c1nc(C(N)=O)cs1)CC2 | 12% | -1.52 |
| Cc1nc2ccccn2c1CN1CCC[C@H](C(=O)c2ccccn2)C1 | 10% | -1.32 |
| O=C1N(c2ccccn2)C[C@H]2CN(Cc3ccc(F)cc3)CCN12 | 0% | -0.06 |
| CN1CCN2c3cc(Cl)ccc3CC3(C(=O)N(c4ccccc4)C(=O)N(c4ccccc4)C3=O)[C@@H]2C1 | 9% | -1.16 |
| CCOc1cccc2c1cc(C(=O)NCc1ccc3c(c1)OCO3)n2Cc1ccccc1Cl | -17% | 1.63 |
| Cc1n[nH]c(C)c1CNCCc1c[nH]c2ccccc12 | -3% | 0.71 |
| CN1CCN2c3ccccc3CC3(C(=O)NC(=O)N(c4ccc(F)cc4)C3=O)C2C1 (centres undefined) | -2% | 0.21 |
| Cn1c(O)c(C2=NN[C@H](c3ccccc3)C2)c(=O)n(C)c1=O | 2% | -0.3 |
| CN1C2CCC1CC(Oc1ncc(Cl)cn1)C2 (centres undefined) | -15% | 2.22 |
| CC(Cc1ccc(Cl)cc1)NC(C)c1nc(C(C)C)no1 (centres undefined) | -1% | 0.08 |
| O=C1c2ccccc2NC2(CCN(CC3CCCCC3)CC2)N1c1ccc2c(c1)OCO2 | -8% | 1.5 |
| CC(C)(NC(=O)c1cc(S(=O)(=O)F)c[nH]1)c1nccs1 | -6% | 0.77 |
| COc1cccc(OCC#CCN2CCCCC2)c1 | -2% | 0.25 |
| COc1ccc(NC(=O)N2[C@H]3CC[C@@H]2c2cnc(C)nc2C3)cc1OC | -9% | 1.33 |
| CCn1ccnc1[C@H](C)NC(=O)c1ccc2oc(=O)[nH]c2c1 | 8% | -0.93 |
| Cc1ncc(CC(=O)N2CCN(C)[C@H](c3ccccc3)C2)c(=O)[nH]1 | -6% | 1.13 |
| O=C(Cc1ccn[nH]1)N1CCN(Cc2ccccc2)CC1 | 34% | -3.88 |
